Hit rate of the full screen: of about 220,000 compounds, about 16,000 (7.3%) were called active. Inconclusive means that the source gave no clear call. Such entries were picked first, then a sample of the others. The call rests on the fitted dose curve; in most records, active means well fitted inhibition curve with a large enough effect (not every such curve was filed as active); inconclusive means small, poorly fitted or top-dose-only effect, or another doubt; inactive means no such curve, though single readings can be large or run the other way. No potency is given beside an inconclusive call; the fits are too rough.
target: Aldehyde dehydrogenase 1A1 (Homo sapiens) (UniProt P00352); test: qHTS Assay for Inhibitors of Aldehyde Dehydrogenase 1 (ALDH1A1); conditions: Purified ALDH1A1, NADH fluorescence, propionaldehyde substrate; series mostly up to 75.3 µM
UniProt P00352, sequence (P00352 whole entry, looked up): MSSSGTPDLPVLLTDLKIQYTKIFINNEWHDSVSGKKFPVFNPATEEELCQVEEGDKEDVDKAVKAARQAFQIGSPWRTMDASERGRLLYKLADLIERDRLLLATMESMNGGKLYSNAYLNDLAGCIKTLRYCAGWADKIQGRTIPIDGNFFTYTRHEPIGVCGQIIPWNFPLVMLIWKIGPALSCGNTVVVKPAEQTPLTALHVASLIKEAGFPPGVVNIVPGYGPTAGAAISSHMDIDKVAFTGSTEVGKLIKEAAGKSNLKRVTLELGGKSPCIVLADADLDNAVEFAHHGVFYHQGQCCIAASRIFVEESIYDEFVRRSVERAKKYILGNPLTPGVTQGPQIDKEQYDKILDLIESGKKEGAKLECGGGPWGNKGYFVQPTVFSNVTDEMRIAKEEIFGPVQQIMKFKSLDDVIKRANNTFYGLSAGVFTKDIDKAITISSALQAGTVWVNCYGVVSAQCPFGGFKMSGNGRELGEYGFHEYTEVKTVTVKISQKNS
Potency means the concentration at half of the fitted maximal effect; tags describe the fitted curve by direction and shape.

Row | Compound | Potency
1 | COC(=O)c1cn(NC(=O)/C=C/c2cccc(OC)c2OC)c(=O)c2ccccc12 | inconclusive [inhibitor, partial curve]
2 | CCNc1ccccc1 | inactive
3 | Cc1ccc(NC(=S)/C(=C(\[O-])c2ccc(Cl)s2)[n+]2cccc(CO)c2)cc1C | active: 14.1 µM
4 | CCOc1ccc(CN(C)CC(=O)Nc2cc(C)c(C)cc2[N+](=O)[O-])cc1 | inconclusive [inhibitor, full curve]
5 | Cc1ccc(-c2nn3c(C)nnc3s2)cc1NC(=O)c1ccc(-c2ccc(Cl)cc2Cl)o1 | inconclusive [inhibitor, partial curve]
6 | Cc1cccc(N(CC(=O)NCc2ccc3c(c2)OCO3)C(=O)CCC(=O)Nc2ccccn2)c1 | inactive
7 | Cc1nc(SCc2cccc(C(=O)O)c2)nc2c1CCCC2 | inactive
8 | CCCC(=O)Nc1ccc(-c2nc3cc(C)c(C)cc3o2)cc1 | inconclusive [inhibitor, single point]
9 | CCOc1ccc(S(=O)(=O)NN2Cc3ccccc3C2=N)cc1 | inactive
10 | NC[C@@H]1O[C@H](O[C@@H]2[C@H](O[C@@H]3O[C@H](CO)[C@@H](O)[C@@H]3O)[C@@H](O)[C@@H](N)C[C@H]2N)[C@@H](N)[C@H](O)[C@@H]1O | inactive
11 | CCOC(=O)C1=C(C)Nc2ccccc2N=C1NC(=O)c1cccc(S(=O)(=O)N(C)C)c1 | inactive
12 | Cc1cccc(NS(=O)(=O)c2ccc(Oc3ccccc3)cc2)n1 | inconclusive [inhibitor, single point]
13 | O=C(N/N=C/c1cc(Br)c(Br)o1)c1cccnc1 | inconclusive [inhibitor, single point]
14 | COc1nc(-c2ccc(C)cc2)ccc1-c1noc(-c2ccco2)n1 | inconclusive [inhibitor, single point]
15 | CCCSc1nsc(NC(=O)CCC)n1 | inconclusive [inhibitor, single point]
16 | C[C@@H]1C=C[C@](Cc2ccccc2)(C(=O)NCCc2c[nH]c3ccccc23)N1C(=O)c1ccccc1 | inactive
17 | COc1ccc(S(=O)(=O)NNC(=O)c2ccc(-n3c(C)ccc3C)cc2)cc1 | inconclusive [inhibitor, single point]
18 | CCOC(=O)C1CCN(Cc2ccc(F)c(F)c2)CC1 | inconclusive [inhibitor, single point]
19 | COc1ccccc1NS(=O)(=O)c1ccc2oc(SC3CCOC3=O)nc2c1 (stereo unspecified) | inconclusive [inhibitor, single point]
20 | COc1ccc(NS(=O)(=O)c2cc(NC(=O)Cc3cccs3)ccc2C)cc1 | inconclusive [inhibitor, partial curve]
21 | CCn1c(=O)c2cc(C(=O)N3CCN(C)CC3)sc2c2ccccc21 | inconclusive [inhibitor, partial curve]
22 | c1ccc(-c2ccccc2OCCCCN2CCCCCC2)cc1 | inconclusive [inhibitor, single point]
23 | COC(=O)C(C)Sc1nc2c(c(=O)[nH]c(=O)n2C)n1CCCc1ccccc1 (stereo unspecified) | inconclusive [inhibitor, partial curve]

Row | Compound | Potency
24 | NS(=O)(=O)c1ccc(N/N=C/c2cn(-c3ccccc3)nc2-c2cccs2)cc1 | inconclusive [inhibitor, single point]
25 | Cc1nc2cc(NC(=O)COc3ccccc3C#N)ccc2n1-c1ccccc1 | inconclusive [inhibitor, partial curve]
26 | CNC(=S)N(Cc1cc2cc(OC)c(OC)cc2[nH]c1=O)C1CCCC1 | inconclusive [inhibitor, partial curve]
27 | CCC(C)NCCOc1ccc(Br)cc1 (stereo unspecified) | inactive
28 | CC(C)(C)c1cc(CN2CCCC(O)C2)c(O)c(C(C)(C)C)c1 (stereo unspecified) | inconclusive [inhibitor, single point]
29 | NC(=O)C1CCN(C(=O)Cn2cccc2C(=O)c2ccccc2)CC1 | inactive
30 | Cc1ccccc1NCC(=O)N/N=C\c1ccc([N+](=O)[O-])s1 | inconclusive [inhibitor, single point]
31 | O=C(Nc1ccccn1)c1ccc(S(=O)(=O)c2ccc(Cl)cc2)cc1 | inactive
32 | Cc1cc(N=Cc2c(O)n(-c3cccc(C(F)(F)F)c3)c(=O)c3ccccc23)no1 | inactive
33 | CCCCn1c(-c2cc(Cl)ccc2OC)n[nH]c1=S | inconclusive [inhibitor, partial curve]
34 | CCOC(=O)c1[nH]c2cc(OC)c(OC)cc2c1NC(=O)CN1CCN(C)CC1 | inconclusive [inhibitor, partial curve]
35 | Cc1cc(NC(=O)c2ccccc2F)ncc1NC(=O)c1cccs1 | inactive
36 | COc1cc(NC(=O)C(C)Oc2ccccc2)c(C(=O)O)cc1OC (stereo unspecified) | inactive
37 | O=C(c1cc(-c2cccc(O)c2)on1)N1CCCCC1 | inconclusive [inhibitor, single point]
38 | O=C(CSC1=NCCS1)Nc1ccc(F)cc1 | inactive
39 | CCOC(=O)C(NC(C)=O)(NS(=O)(=O)c1ccccc1)C(F)(F)F (stereo unspecified) | inactive
40 | CC(C)CN1C(=O)c2ccc(NC(=O)c3ccccc3F)cc2C1=O | inconclusive [inhibitor, partial curve]
41 | COc1ccc(NC(=O)N2CCCC(CNS(=O)(=O)c3cccs3)C2)c(C)c1 (stereo unspecified) | inactive
42 | CSc1ncccc1C(=O)OCc1ccccc1Cl | inconclusive [inhibitor, partial curve]
43 | CCC1(CC)C(=O)N=C2c3ccccc3C(=O)N21 | inconclusive [inhibitor, single point]
44 | Cc1c(C(=O)OCC(=O)N(CCC#N)c2ccccc2)oc2c1ccc1ccccc12 | inconclusive [inhibitor, partial curve]
45 | CCOC(=O)N1CCN(C(=O)CC(C(=O)N2CCc3ccccc32)n2ccnc2)CC1 (stereo unspecified) | inconclusive [inhibitor, partial curve]
46 | CCOC(=O)Cn1c(CCC(=O)O)ccc1-c1ccc(F)cc1 | inconclusive [inhibitor, single point]
